Assays:
Assay in all cases: ELISA, antigen coated, binder 1 µg/mL, chemiluminescence
Conditions in all cases: remark: other sources report otherwise
[1] = biological target: Hp wild-type RBD (coronavirus Hp strain (Hibecovirus subgenus))
[2] = biological target: Zaria wild-type RBD (coronavirus Zaria strain (Hibecovirus subgenus))
[3] = biological target: GCCDC1 wild-type RBD (coronavirus GCCDC1 strain (Nobecovirus subgenus))

B1: BD23 (antibody)
heavy: QVQLVQSGSELKKPGASVKVSCKASGYTFTSYAMNWVRQAPGQGLEWMGWINTNTGNPTYAQGFTGRFVFSLDTSVSTAYLQISSLKAEDTAVYYCARPQGGSSWYRDYYYGMDVWGQGTTVTVSS[sequence of human IgG1 constant region not given]
light: [sequence of about 100 residues not given][sequence of about 100 residues not given]
signal intensity [1]: 70 | signal intensity [2]: 240 | signal intensity [3]: 70

Reference: patent publication US20240255507A1
